Experimental data: PubChem BioAssay AID1347417 (National Center for Advancing Translational Sciences (NCATS), 2020)
Among all 120,000 compounds or so, about 5,300 (4.4%) were called active. Inconclusive means that the source gave no clear call. Such entries were picked first, then a sample of the others. Calls follow the shape of the dose curve; as a rule, active = well fitted inhibition curve with a large enough effect; inconclusive = small, poorly fitted or top-dose-only effect; inactive = no such curve, though single readings can be large or run the other way. Potencies of inconclusive entries are doubtful fits and often do not repeat.
Potency is read from the fitted curve at half-maximal effect; tags tell the direction and shape of the fitted curve.

Assay: qHTS Primary assay for Inhibitors of Plasmodium falciparum Dd2 growth in vitro; also: nearly all actives have a fitted effect of over 65% in size;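 as to activity, negative = inhibition: plate controls were DMSO vehicle for no effect and reference drug for full effect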
Details: P. falciparum Dd2 growth, SYBR Green, 72 h; activity, negative = inhibition: at 28.9 µM (top of the series) unless noted; series mostly up to 28.9 µM
Method in brief: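 Infected erythrocytes (Dd2, 0.3% parasitemia, 2.5% hematocrit final) are added to compound in RPMI-1640/Albumax II medium, grown 72 h at 37C in low oxygen, then lysed with saponin/Triton-X containing SYBR Green and read by fluorescence.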
In the case of `O=C(NCc1cc(F)cc(F)c1)c1nnn2c1COC(c1ccc(Br)cc1)C2` (stereo not given), the Potency is reported as “inactive”.
For `CN(C)C[C@@H]1CN(S(C)(=O)=O)C[C@H]1NC(=O)c1cc2ccccc2[nH]1`, the Potency was “inactive”.
With `CCN1c2cc(C(=O)Nc3cccc(Cl)c3)ccc2C(=O)N2CCCCCC21` (stereo not given) the Potency was inconclusive: 3.55 µM [inhibitor, single point].
For `COc1ccc(-c2cc(C(=O)NC3CC3)c3c(C4CCCN4)nn(C)c3n2)cc1` (stereo not given), the Potency was inconclusive: 12.6 µM [inhibitor, single point].
In the case of `Cc1cc2c(cc3c(SCc4ccccc4Cl)nnc(C)n32)o1`, the Potency is reported as inconclusive: 10 µM [inhibitor, single point].
For `CCN(C(=O)C1CCCN(c2ncnc3c2nc2n3CCCCC2)C1)c1cccc(Cl)c1` (stereo not given), the Potency was inconclusive: 14.1 µM [inhibitor, single point].
With `Cc1cc(NC(=O)c2ccc(NC(=O)CCS(=O)(=O)c3cccs3)cc2)ccc1Br` the Potency was inconclusive: 11.2 µM [inhibitor, single point].
With `Cc1c(CCNC(=O)C(C)(C)C)sc2nc(-c3ccc(F)cc3)nn12` the Potency was inconclusive: 10 µM [inhibitor, partial curve].
For `COc1nc2ccccc2cc1CN1CCN2C(=O)CN(C)C(=O)C2C1` (stereo not given), the Potency was “inactive”.
In the case of `CN(C)C[C@H]1O[C@H](Cc2cc(-c3ccc(F)cc3)on2)CC[C@@H]1O`, the Potency is reported as “inactive”.
For `O=C(Nc1ccc(C(F)(F)F)cc1)C(Cc1ccccc1)n1cccc1` (stereo not given), the Potency was active: 14.1 µM.
With `CN(Cc1cccnc1)Cc1nc(C2(O)CCN(CC3CCCCC3)CC2)cs1` the Potency was inconclusive: 25.1 µM [inhibitor, single point].
For `CC(C)c1nnc(CN2CCOc3c(O)cc(-c4cccc(Cl)c4)cc3C2)o1`, the Potency was inconclusive: 12.6 µM [inhibitor, partial curve].
In the case of `CS(=O)(=O)N(C1CCOCC1)C1CN(C(=O)COc2ccccc2)C1`, the Potency is reported as “inactive”.
For `CCc1noc(-c2cn(C3CCN(C(=O)c4cc(F)ccc4F)CC3)nn2)n1`, the Potency was inconclusive: 3.55 µM [inhibitor, full curve, poor fit].
In the case of `COc1ccc(OCC(=O)Nc2ccc(-c3nc4cc(C)c(C)cc4o3)cc2)cc1`, the activity, negative = inhibition is reported as inconclusive: -34.2% [inhibitor] [at 5.79 µM].
For `COc1ccc2[nH]cc(CCN=C(NC(=O)c3ccccc3C)Nc3nc(C)cc(C)n3)c2c1`, the Potency was active: 8.91 µM.
With `C=CCNC(=O)N[C@H]1CCN2C(=O)c3cc(-c4ccccc4F)ccc3NC(=O)[C@@H]2C1` the Potency was “inactive”.
With `Cn1cccc1CN1CCCC2(C1)C(=NC1CCCC1)NC(=O)N2c1cc(F)cc(F)c1` (stereo not given) the Potency was inconclusive: 3.55 µM [inhibitor, partial curve, poor fit].
For `Cc1ccccc1N1CCN(C(=O)[C@@]23CCCC[C@H]2N(CCC(C)C)C(=O)CC3)CC1`, the Potency was inconclusive: 2.24 µM [inhibitor, full curve, poor fit].
With `CCn1cc(C(=O)N2CCN(c3ccc(OC)cc3)CC2)c(=O)c2cc(S(=O)(=O)N3CCOCC3)ccc21` the Potency was inconclusive: 0.0089 µM [inhibitor, full curve, poor fit].
For `Cc1cc(Nc2cc(F)ccc2C)nc(-n2nc(C)cc2C)n1`, the Potency was inconclusive: 7.94 µM [inhibitor, partial curve, poor fit].
In the case of `O=C(CCC1CCN(c2cc(NC3CC3)ncn2)CC1)NCc1ccc(F)cc1F`, the Potency is reported as inconclusive: 10 µM [inhibitor, single point].
For `COc1ccccc1N1CCN([C@@H]2[C@H](O)[C@H](CO)O[C@@H]2CNC(=O)Nc2ccccc2)CC1`, the Potency was “inactive”.
For `CCC(=O)N1CCCCCCN(C)C(=O)[C@@H]2CCC[C@@H]21`, the Potency was inconclusive: 1.78 µM [inhibitor, full curve, poor fit].
For `COCCC1(NC(=O)C2CC2)CCN(S(=O)(=O)c2c(C)noc2C)CC1`, the Potency was “inactive”.
With `O=C(NCc1ccco1)N1CC(n2cc(COc3ccccc3)nn2)C1` the Potency was “inactive”.
For `O=C1CCCN1Cc1nc(-c2ccc(F)c(Cl)c2)no1`, the Potency was “inactive”.
With `Cc1noc(C)c1Cc1ccc(C(=O)N2CCCCCCNC(=O)[C@@H]3CCCC[C@@H]32)o1` the Potency was inconclusive: 20 µM [inhibitor, single point].
In the case of `COc1cc(SC)ccc1C(=O)N[C@H]1CCN2C(=O)[C@@H](CC(=O)O)NC(=O)[C@@H]2C1`, the Potency is reported as “inactive”.
In the case of `Fc1ccccc1CN1CCOC[C@H](Oc2cccnc2)C1`, the Potency is reported as inconclusive: 31.6 µM [inhibitor, single point].
In the case of `COC1CCOC2(CCN(C(=O)CCc3ccccc3)CC2)C1` (stereo not given), the Potency is reported as “inactive”.
For `CCn1ccc(C(=O)N2CC(Oc3ccc(-c4nc(-c5ccccc5)no4)cc3)C2)n1`, the Potency was inconclusive: 2.82 µM [inhibitor, partial curve, poor fit].
With `CC(C)c1noc(CC2CCN(C(=O)c3ccccn3)CC2)n1` the Potency was “inactive”.
In the case of `CCOc1ccc2oc(=O)cc(CN3CCN(c4ccccc4OC)CC3)c2c1`, the Potency is reported as inconclusive: 17.8 µM [inhibitor, single point].
With `COc1cccc(NC(=O)Cn2c(=O)n(CCc3ccc(OC)c(OC)c3)c(=O)c3ccccc32)c1` the Potency was inconclusive: 11.2 µM [inhibitor, single point].
In the case of `CC1=C(C(=O)Nc2ccccc2)C(c2cc(C)ccc2C)N2C(CC(=O)NC(C)C)=CSC2=N1` (stereo not given), the Potency is reported as inconclusive: 2.51 µM [inhibitor, full curve].
For `COc1cccc(NC(=O)COc2ccc(-c3nnc4n3CCCC4)cc2)c1`, the Potency was active: 2.82 µM.
With `N#Cc1cccc(N2CCN(Cc3ccc(F)c(Cl)c3F)CC2)n1` the Potency was inconclusive: 12.6 µM [inhibitor, partial curve].
In the case of `COc1cc(-c2[nH]ncc2CN2CCN(c3ccc(Cl)cn3)CC2)cc(OC)c1OC`, the Potency is reported as “inactive”.
With `CC(C)NC(=O)C1=NOC2CN(C(=O)c3ccn(C)n3)CC12` (stereo not given) the Potency was “inactive”.
In the case of `COc1ccc(-c2ccnc(N[C@H]3CO[C@H]4[C@@H]3OC[C@H]4OC(=O)Nc3ccc(C(C)=O)cc3)n2)cc1`, the Potency is reported as active: 5.62 µM.
For `CCn1c2ccccc2c2cc(C(=O)N3C[C@@H](Oc4ccccc4)C[C@@H]3C(=O)NC)ccc21`, the Potency was inconclusive: 6.31 µM [inhibitor, partial curve, poor fit].
For `O=C(NCCn1ccn2nc(-c3ccc(F)cc3)cc2c1=O)c1n[nH]c2c1CCCC2`, the Potency was inconclusive: 1.26 µM [inhibitor, partial curve, poor fit].
For `O=C1N(Cc2ccccc2)c2ccccc2C1(O)c1c[nH]c2ccccc12` (stereo not given), the Potency was inconclusive: 11.2 µM [inhibitor, single point].
In the case of `Cc1noc(C)c1-c1cc(-c2cccc3cc[nH]c23)cn2cncc12`, the Potency is reported as inconclusive: 7.08 µM [inhibitor, partial curve, poor fit].
For `Cc1ccc(NC(=O)N2CC[C@@H]3C(=O)NCCCCCCN(Cc4ccncc4)[C@@H]3C2)cc1C`, the Potency was inconclusive: 10 µM [inhibitor, single point].
For `O=C(c1nc(-c2ccsc2)c2cnccn12)N1CCOCC1`, the Potency was inconclusive: 11.2 µM [inhibitor, partial curve, poor fit].
In the case of `CCOc1ccc(-c2nc(SCC(=O)Nc3cc(F)ccc3F)n3[nH]c(=O)cc3n2)cc1`, the Potency is reported as inconclusive: 2.82 µM [inhibitor, full curve].
With `CC(C)c1ccc(CNc2n[nH]c(-c3ccco3)n2)cc1` the Potency was “inactive”.
In the case of `CCC(=O)N1CCc2cc(OC)c(OC)cc2C1COc1ccc2c(C)cc(=O)oc2c1` (stereo not given), the Potency is reported as inconclusive: 3.98 µM [inhibitor, single point].
In the case of `CCCCn1c(=N)n(CCOc2ccccc2OC)c2ccccc21`, the Potency is reported as inconclusive: 14.1 µM [inhibitor, partial curve, poor fit].
For `CC1=C[C@@H](CN2CCCCC2)[C@H](C(C)C)C[C@H]1Cc1nnc(-c2cncn2C)o1`, the Potency was active: 7.94 µM.
For `Cc1ccc(CSc2nc(-c3ccccc3C)nc3c2Cc2c(CO)cnc(C)c2O3)cc1`, the Potency was active: 5.01 µM.
For `O=C1NCCCCCCN[C@H]2C[C@H](C(=O)N3CCc4ccccc4C3)C[C@@H]12`, the Potency was active: 6.31 µM.
For `Cc1ccc(C(=O)N2CCC(c3nc(C4CCOCC4)no3)CC2)cn1`, the Potency was inconclusive: 2.24 µM [inhibitor, full curve, poor fit].
With `CC1=C(C(=O)OC2CCCC2)C(c2ccccc2C(F)(F)F)CC(=O)N1` (stereo not given) the Potency was inconclusive: 17.8 µM [inhibitor, single point].
In the case of `O=C(NCCCN1CCc2ccccc2C1)C1Cn2cccc2C(=O)N1Cc1ccccc1` (stereo not given), the Potency is reported as active: 0.891 µM.
For `CC1=C[C@@H](CN2CCN(c3cnccn3)CC2)[C@H](C(C)C)C[C@H]1Cc1nnc(-c2cccnc2)o1`, the Potency was inconclusive: 15.8 µM [inhibitor, partial curve, poor fit].
In the case of `Cc1ccc(N(CC(=O)Nc2ccc(C)c(Cl)c2)S(=O)(=O)c2cccs2)cc1`, the Potency is reported as inconclusive: 20 µM [inhibitor, partial curve, poor fit].
In the case of `Cc1ccc(CN2CCCCCCNC(=O)[C@@H]3CCC[C@@H]32)s1`, the Potency is reported as inconclusive: 10 µM [inhibitor, partial curve].
In the case of `COc1ccc(C(=O)N2CCc3nc(N)nc(N4CCCC4)c3CC2)o1`, the Potency is reported as inconclusive: 10 µM [inhibitor, single point].
With `COc1ccc(-n2nc3c(N4CCCC(C(=O)NCCc5ccccc5C)C4)nnc(C)c3c2C)cc1` (stereo not given) the Potency was active: 8.91 µM.
For `O=C(NCc1ccco1)c1cc2c(s1)CCN(C(=O)c1ccc(Cl)cc1)C2`, the Potency was inconclusive: 8.91 µM [inhibitor, single point].
For `COCCN[C@@H]1C[C@@H]2c3[nH]c4ccccc4c3C[C@@H](C(=O)OC)N2[C@H](c2ccc(C(C)C)cc2)C1`, the Potency was inconclusive: 3.55 µM [inhibitor, single point].
